{"source": "paper PMC11995724", "about": "“Antibiotic target discovery by integrated phenotypic and activity-based profiling of electrophilic fragments” (Cell chemical biology, 2025)", "note": "Out of some 3,200 compounds screened, about 110 (3.4%) showed an effect of 50% or more. This is one part of the list.", "data": [{"system": "T1, V. cholerae SAD30", "T1 construct": "SAD30", "design": "species or system S. aureus MSSA476 (TSB) or V. cholerae SAD30 (LB); 384-well bacterial growth screen at 25 uM, OD600 relative to DMSO control", "details": "relative growth, OD600, LB; 25 µM; inhibitor", "units": {"% of control remaining": "%"}, "values": [{"smiles": "C=CC(=O)N1CC(OCc2ccccc2F)C1", "note": "[3-I15, 1-{3-[(2-fluorophenyl)methoxy]azetidin-1-yl}prop-2-en-1-one]", "% of control remaining": 89.6196}, {"smiles": "Cc1cc(CN(Cc2ccn(C)n2)C(=O)CCl)ccc1F", "note": "[5-G14, 2-chloro-N-[(4-fluoro-3-methylphenyl)methyl]-N-[(1-methyl-1H-pyrazol-3-yl)methyl]acetamide]", "% of control remaining": 96.6691}, {"smiles": "C=CC(=O)N1C2CCCC1CC1(C2)NC(=O)NC1=O", "note": "(stereo not drawn) [2-K06, 9-(prop-2-enoyl)-9-azaspiro[bicyclo[3.3.1]nonane-3,4'-imidazolidine]-2',5'-dione]", "% of control remaining": 89.5783}, {"smiles": "C=CC(=O)NC1CC(=O)N(CC)C1", "note": "(stereo not drawn) [2-O22, N-(1-ethyl-5-oxopyrrolidin-3-yl)prop-2-enamide]", "% of control remaining": 103.32}, {"smiles": "CCC(NC(=O)CCl)c1ccc(C)cc1", "note": "(stereo not drawn) [4-K17, 2-chloro-N-[1-(4-methylphenyl)propyl]acetamide]", "% of control remaining": 97.3043}, {"smiles": "C=CC(=O)N1CCC(C(=O)N[C@H]2CCC[C@H]2O)CC1", "note": "[2-K04, N-[(1S,2R)-2-hydroxycyclopentyl]-1-(prop-2-enoyl)piperidine-4-carboxamide]", "% of control remaining": 95.9085}, {"smiles": "O=C(O)c1csc(C(=O)CCl)c1", "note": "[10-E22, 5-(2-chloroacetyl)thiophene-3-carboxylic acid]", "% of control remaining": 102.864}, {"smiles": "Cl.O=C(CN1CCN(C(=O)CCl)CC1)Nc1cccc(F)c1", "note": "[5-P19, 2-[4-(2-chloroacetyl)piperazin-1-yl]-N-(3-fluorophenyl)acetamide hydrochloride]", "% of control remaining": 107.261}, {"smiles": "O=C(CCl)NC1CCCc2nc(-c3ccccc3)sc21", "note": "(stereo not drawn) [7-B04, 2-chloro-N-(2-phenyl-4,5,6,7-tetrahydro-1,3-benzothiazol-7-yl)acetamide]", "% of control remaining": 86.833}, {"smiles": "O=C(CCl)NC1CCCN(c2cc(N3CCOCC3)ncn2)C1", "note": "(stereo not drawn) [4-N21, 2-chloro-N-{1-[6-(morpholin-4-yl)pyrimidin-4-yl]piperidin-3-yl}acetamide]", "% of control remaining": 107.138}, {"smiles": "N#CC(C(=O)CCl)=C1NC2=C(CCc3ccccc32)S1", "note": "[10-N10, 4-chloro-2-{1H,2H,4H,5H-naphtho[1,2-d][1,3]thiazol-2-ylidene}-3-oxobutanenitrile]", "% of control remaining": 91.3306}, {"smiles": "O=C1CCc2cc(C(=O)CCl)c(F)cc2N1", "note": "[10-O20, 6-(2-chloroacetyl)-7-fluoro-1,2,3,4-tetrahydroquinolin-2-one]", "% of control remaining": 36.6258}, {"smiles": "COc1ccc(CCNC(=O)CCl)cc1", "note": "[5-H12, 2-chloro-N-[2-(4-methoxyphenyl)ethyl]acetamide]", "% of control remaining": 68.593}, {"smiles": "CN(C)C(=O)c1ccc(CNC(=O)CCl)cc1", "note": "[6-C16, 4-[(2-chloroacetamido)methyl]-N,N-dimethylbenzamide]", "% of control remaining": 88.7288}, {"smiles": "Cc1cc(C(=O)CCl)c(C)n1CC1CCCO1", "note": "(stereo not drawn) [10-B08, 2-chloro-1-{2,5-dimethyl-1-[(oxolan-2-yl)methyl]-1H-pyrrol-3-yl}ethan-1-one]", "% of control remaining": 94.2918}, {"smiles": "N#CC1=C(N2CCOCC2)SC(c2cccc([N+](=O)[O-])c2)NC1=O", "note": "(stereo not drawn) [9-L19, 6-(morpholin-4-yl)-2-(3-nitrophenyl)-4-oxo-3,4-dihydro-2H-1,3-thiazine-5-carbonitrile]", "% of control remaining": 86.9477}, {"smiles": "CCCCNC(=O)C(C#N)=Cc1ccc(Cl)cc1Cl", "note": "[9-O07, N-butyl-2-cyano-3-(2,4-dichlorophenyl)prop-2-enamide]", "% of control remaining": 83.4126}, {"smiles": "CCCn1c(C)cc(C=C(C#N)C(=O)Nc2ccc3c(c2)OCO3)c1C", "note": "[9-G07, N-(1,3-dioxaindan-5-yl)-2-cyano-3-(2,5-dimethyl-1-propyl-1H-pyrrol-3-yl)prop-2-enamide]", "% of control remaining": 88.5792}, {"smiles": "O=C(CCl)NC1CCCS(=O)(=O)c2ccccc21", "note": "(stereo not drawn) [6-O19, 2-chloro-N-(1,1-dioxo-2,3,4,5-tetrahydro-1lambda6-benzothiepin-5-yl)acetamide]", "% of control remaining": 96.1608}, {"smiles": "COc1ccc(NC(C)=O)cc1NC(=O)CCl", "note": "[5-G03, 2-chloro-N-(5-acetamido-2-methoxyphenyl)acetamide]", "% of control remaining": 109.11}, {"smiles": "CC(Cl)C(=O)N1CCC(N(CC(F)(F)F)S(C)(=O)=O)CC1", "note": "(stereo not drawn) [7-C07, N-[1-(2-chloropropanoyl)piperidin-4-yl]-N-(2,2,2-trifluoroethyl)methanesulfonamide]", "% of control remaining": 82.7358}, {"smiles": "N#CC(=Cc1ccc(F)c(F)c1)C(=O)NC1CCCCC1", "note": "[9-J22, 2-cyano-N-cyclohexyl-3-(3,4-difluorophenyl)prop-2-enamide]", "% of control remaining": 101.224}, {"smiles": "C=CC(=O)N(CC)CC(=O)N1CCc2c(cccc2NC(C)=O)C1", "note": "[3-K16, N-[2-(5-acetamido-1,2,3,4-tetrahydroisoquinolin-2-yl)-2-oxoethyl]-N-ethylprop-2-enamide]", "% of control remaining": 90.5017}, {"smiles": "COc1ccc(C=C(C#N)C(N)=O)c(Cl)c1OC", "note": "[9-H14, 3-(2-chloro-3,4-dimethoxyphenyl)-2-cyanoprop-2-enamide]", "% of control remaining": 95.1054}, {"smiles": "CC(C)c1ccc(C(NC(=O)CCl)C(C)C)cc1", "note": "(stereo not drawn) [4-O14, 2-chloro-N-{2-methyl-1-[4-(propan-2-yl)phenyl]propyl}acetamide]", "% of control remaining": 93.3362}, {"smiles": "CC(CO)(Cc1ccc(F)cc1)NC(=O)CCl", "note": "(stereo not drawn) [7-F06, 2-chloro-N-{2-[(4-fluorophenyl)methyl]-1-hydroxypropan-2-yl}acetamide]", "% of control remaining": 78.5065}, {"smiles": "N#CC(=Cc1ccco1)C(=O)NCc1nc(-c2ccncc2)cs1", "note": "[9-B20, 2-cyano-3-(furan-2-yl)-N-{[4-(pyridin-4-yl)-1,3-thiazol-2-yl]methyl}prop-2-enamide]", "% of control remaining": 84.9082}, {"smiles": "C=CC(=O)N(C)Cc1cc(-c2ccccc2)[nH]n1", "note": "[1-B05, N-methyl-N-[(5-phenyl-1H-pyrazol-3-yl)methyl]prop-2-enamide]", "% of control remaining": 93.2735}, {"smiles": "C=CC(=O)Nc1cc(C)c(CC)cc1OC", "note": "[3-O06, N-(4-ethyl-2-methoxy-5-methylphenyl)prop-2-enamide]", "% of control remaining": 109.028}, {"smiles": "O=C(CCl)N1CC(NC(=O)C(F)(F)F)CCC1C(F)(F)F", "note": "(stereo not drawn) [5-O18, N-[1-(2-chloroacetyl)-6-(trifluoromethyl)piperidin-3-yl]-2,2,2-trifluoroacetamide]", "% of control remaining": 100.032}, {"smiles": "COc1cc(CNC(=O)C(C#N)=Cc2ccco2)c2ccccc2n1", "note": "[9-I05, 2-cyano-3-(furan-2-yl)-N-[(2-methoxyquinolin-4-yl)methyl]prop-2-enamide]", "% of control remaining": 91.7063}, {"smiles": "Cn1cc(C(=O)CCl)cc1C(N)=O", "note": "[10-J06, 4-(2-chloroacetyl)-1-methyl-1H-pyrrole-2-carboxamide]", "% of control remaining": 97.5648}, {"smiles": "C=CC(=O)N1CCC(C(=O)N[C@@H](C)C(=O)NC)(c2ccccc2)CC1", "note": "[2-B16, (2S)-N-methyl-2-{[4-phenyl-1-(prop-2-enoyl)piperidin-4-yl]formamido}propanamide]", "% of control remaining": 88.4975}, {"smiles": "CC(Cl)C(=O)NC(C)(C(N)=O)c1cccc(Cl)c1", "note": "(stereo not drawn) [5-J17, 2-(3-chlorophenyl)-2-(2-chloropropanamido)propanamide]", "% of control remaining": 94.9879}, {"smiles": "C=CC(=O)NCC1CCN(C2CC2)CC1", "note": "[1-A07, N-[(1-cyclopropylpiperidin-4-yl)methyl]prop-2-enamide]", "% of control remaining": 88.3408}, {"smiles": "C=CC(=O)NC1CCN(S(N)(=O)=O)CC1", "note": "[1-K18, N-(1-sulfamoylpiperidin-4-yl)prop-2-enamide]", "% of control remaining": 87.4439}, {"smiles": "O=C(CCl)Nc1ccc(S(=O)(=O)Nc2nccs2)cc1", "note": "[4-B14, 2-chloro-N-{4-[(1,3-thiazol-2-yl)sulfamoyl]phenyl}acetamide]", "% of control remaining": 105.758}, {"smiles": "CC(C)c1ccc(CCNC(=O)CCl)cc1", "note": "[6-I16, 2-chloro-N-{2-[4-(propan-2-yl)phenyl]ethyl}acetamide]", "% of control remaining": 91.9139}, {"smiles": "CC(Cl)C(=O)N1CC(n2cc(C(N)=O)nn2)C1", "note": "(stereo not drawn) [5-F21, 1-[1-(2-chloropropanoyl)azetidin-3-yl]-1H-1,2,3-triazole-4-carboxamide]", "% of control remaining": 101.376}, {"smiles": "CC(Cl)C(=O)N(Cc1nnc(-c2ccccc2Cl)o1)C1CC1", "note": "(stereo not drawn) [5-B17, 2-chloro-N-{[5-(2-chlorophenyl)-1,3,4-oxadiazol-2-yl]methyl}-N-cyclopropylpropanamide]", "% of control remaining": 85.0688}, {"smiles": "O=C(CCl)Nc1ccc(Cl)c(S(=O)(=O)N2CCOCC2)c1", "note": "[6-K13, 2-chloro-N-[4-chloro-3-(morpholine-4-sulfonyl)phenyl]acetamide]", "% of control remaining": 92.824}, {"smiles": "C=CC(=O)N1CC2(CCCC2)CC1CO", "note": "(stereo not drawn) [2-I19, 1-[3-(hydroxymethyl)-2-azaspiro[4.4]nonan-2-yl]prop-2-en-1-one]", "% of control remaining": 93.1294}, {"smiles": "O=C(CCl)N1CCCC1c1ccccc1", "note": "(stereo not drawn) [6-M19, 2-chloro-1-(2-phenylpyrrolidin-1-yl)ethan-1-one]", "% of control remaining": 91.6106}, {"smiles": "N#CC(=Cc1cn(-c2ccccc2)nc1-c1ccccc1Cl)C(N)=O", "note": "[8-N18, 3-[3-(2-chlorophenyl)-1-phenyl-1H-pyrazol-4-yl]-2-cyanoprop-2-enamide]", "% of control remaining": 57.036}, {"smiles": "O=C(CCl)N1N=C(c2ccccc2)CC1c1ccc2nccnc2c1", "note": "(stereo not drawn) [4-A22, 2-chloro-1-[3-phenyl-5-(quinoxalin-6-yl)-4,5-dihydro-1H-pyrazol-1-yl]ethan-1-one]", "% of control remaining": 111.451}]}]}
